Results on 60 compounds are retold here after the supplement of paper PMC9446081.

Hit rate of the full screen: of about 39,000 compounds, about 220 (0.56%) showed activity. The list shows a part of the results.
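Also: static incubation at 37 °C against the wild-type strain, values averaged over two biological replicates.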

The subject of the experiment is Escherichia coli K-12 BW25113. In words: relative growth (OD600 normalised to plate interquartile mean) (fraction); higher = less growth inhibition, active = 0.2 or less. The following applies: 50 µM; LB; incubation time: overnight (16-24 h).
On to `C[C@H](CO)N1C[C@H](C)[C@@H](CN(C)S(=O)(=O)c2ccc(F)cc2)Oc2c(NS(C)(=O)=O)cccc2C1=O`, for which the relative growth is inactive: 0.995.
Next, `C[C@H]1CN([C@@H](C)CO)C(=O)c2cccc(NC(=O)NC3CCCCC3)c2O[C@H]1CN(C)S(=O)(=O)c1cn(C)cn1`: inactive: 0.992; `C[C@@H]1CN([C@H](C)CO)C(=O)c2cccc(NC(=O)Nc3ccc(C(F)(F)F)cc3)c2O[C@H]1CN(C)CC1CCCCC1`: inactive: 0.898.
Turning to `C[C@@H]1CN([C@H](C)CO)C(=O)c2ccccc2-c2ccccc2CO[C@@H]1CN(C)Cc1ccccc1C(F)(F)F`, the relative growth is inactive: 1.03.
In the case of `c1ccc(Nc2ncnc3sc(-c4ccccc4)cc23)cc1`, the relative growth was inactive: 1.03.
With `COc1ccc(S(=O)(=O)N(C)C[C@@H]2Oc3ccc(NC(=O)Nc4cccc5c4CCCC5)cc3CC(=O)N([C@@H](C)CO)C[C@@H]2C)cc1Cl`, the relative growth is inactive: 1.01.
The value for `C[C@H](CO)N1C[C@H](C)[C@H](CN(C)C(=O)Nc2ccccc2C(F)(F)F)OCc2cnnn2CCCC1=O` was inactive: 1.02; that for `C[C@@H]1CN([C@@H](C)CO)C(=O)c2cc(NS(=O)(=O)c3cn(C)cn3)ccc2O[C@@H]1CN(C)Cc1ccncc1` was inactive: 0.994; that for `C[C@H](CO)N1C[C@H](C)[C@H](CN(C)Cc2ccc(-c3ccccc3)cc2)Oc2ccc(NC(=O)Nc3ccc4c(c3)OCO4)cc2C1=O` was inactive: 0.985.
For `C[C@H](CO)N1C[C@H](C)[C@H](CN(C)Cc2ccc(C(F)(F)F)cc2)OCCCC[C@H](C)Oc2ccc(NS(C)(=O)=O)cc2C1=O`, the relative growth is inactive: 0.991.
In the case of `Cc1[nH]c(=O)[nH]c(=O)c1S(=O)(=O)NCc1ccccn1`, the relative growth was inactive: 1.01.
`C[C@@H]1CCCCO[C@@H](CN(C)C(=O)C2CCCCC2)[C@@H](C)CN([C@H](C)CO)C(=O)c2cc(NC(=O)Nc3ccc4c(c3)OCO4)ccc2O1`: the relative growth was inactive: 0.954.
For `CCNC(=O)[C@H]1[C@H](CO)[C@H]2Cn3c(ccc(C4=CCCC4)c3=O)[C@@H]1N2S(=O)(=O)c1cn(C)cn1`, the relative growth was inactive: 0.993.
On to `O=C(O)c1cc2cc(F)ccc2s1`, for which the relative growth was inactive: 0.967.
In the case of `CCCCCOC(=O)Nc1nc(=O)n(C2OC(C)C(O)C2O)cc1F` (stereo not given), the relative growth was inactive: 1.1.
The value for `C[C@@H]1CN([C@H](C)CO)C(=O)c2cc(NC(=O)NC3CCCCC3)ccc2O[C@@H](C)CCCCO[C@H]1CN(C)C(=O)CCC(F)(F)F` was inactive: 0.99.
As for `C[C@H](CO)N1C[C@H](C)[C@@H](CN(C)C(=O)Nc2ccc(C(F)(F)F)cc2)Oc2c(NC(=O)c3ccc(-c4nccs4)cc3)cccc2C1=O`, the relative growth is inactive: 0.947.
`Nc1nc(=O)n(C2CSC(CO)O2)cc1F` (stereo not given): the relative growth was inactive: 1.06.
As for `COc1cccc(C#Cc2ccc3c(c2)O[C@H](CN(C)C(=O)CN2CCOCC2)[C@@H](C)CN([C@@H](C)CO)S3(=O)=O)c1`, the relative growth was inactive: 1.02.
The value for `COc1ccccc1S(=O)(=O)N[C@@H]1C=C[C@@H](CC(=O)N2CCOCC2)O[C@@H]1CO` was inactive: 0.937; that for `C[C@@H]1CCCCO[C@@H](CN(C)C(=O)c2ccccc2)[C@H](C)CN([C@H](C)CO)C(=O)c2cc(NC(=O)Nc3ccc4c(c3)OCO4)ccc2O1` was inactive: 1.04.
With `O=C(NCC[C@H]1CC[C@H](NS(=O)(=O)c2cccc(F)c2)[C@H](CO)O1)C1CC1`, the relative growth was inactive: 0.999.
Consider `CC(C)NC(=O)N(C)C[C@@H]1Oc2ccc(NS(=O)(=O)c3ccc(F)cc3)cc2C(=O)N([C@H](C)CO)C[C@H]1C`, for which the relative growth was inactive: 0.999.
With `Cc1ccc(S(=O)(=O)N(C)C[C@@H]2OCCCC[C@H](C)Oc3ccc(NC(=O)Nc4ccc(F)cc4)cc3C(=O)N([C@H](C)CO)C[C@@H]2C)cc1`, the relative growth is inactive: 0.987.
As for `C[C@@H]1CN([C@@H](C)CO)C(=O)c2cc(NC(=O)CCC(F)(F)F)ccc2O[C@@H](C)CCCCO[C@H]1CN(C)C(=O)Nc1ccccc1`, the relative growth was inactive: 0.99.
For `C[C@@H]1CN([C@H](C)CO)C(=O)c2cc(NS(C)(=O)=O)ccc2O[C@@H](C)CCCCO[C@@H]1CN(C)S(C)(=O)=O`, the relative growth is inactive: 1.
Regarding `C[C@H](CO)N1C[C@H](C)[C@H](CN(C)C(=O)c2ccccc2F)Oc2ncc(C#Cc3ccncc3)cc2C1=O`, the relative growth was inactive: 0.992.
As to `CCC[C@@H](O)C#Cc1cnc2c(c1)C(=O)N([C@H](C)CO)C[C@H](C)[C@H](CN(C)S(C)(=O)=O)O2`, the relative growth was inactive: 0.993.
The value for `C[C@H](CO)N1C[C@H](C)[C@@H](CN(C)Cc2ccc(C(=O)Nc3ccccc3N)cc2)Oc2ccc(NC(=O)Nc3cccc4ccccc34)cc2C1=O` was inactive: 1.05; that for `C[C@H]1CN([C@@H](C)CO)C(=O)Cc2cc(NC(=O)Nc3cccc4ccccc34)ccc2O[C@H]1CN(C)C(=O)Nc1ccccc1` was inactive: 0.977; that for `C[C@@H]1CCCCO[C@@H](CN(C)Cc2ccc3c(c2)OCO3)[C@@H](C)CN([C@@H](C)CO)C(=O)c2cc(NS(=O)(=O)c3ccccc3)ccc2O1` was inactive: 1.02.
In the case of `CC(N)CCCC(C)(C)O.Cl` (stereo not given), the relative growth is inactive: 1.04.
Regarding `C[C@H]1CN([C@@H](C)CO)C(=O)c2cc(NS(=O)(=O)c3cn(C)cn3)ccc2O[C@@H]1CN(C)S(=O)(=O)c1ccccc1`, the relative growth is inactive: 0.995.
The value for `CC(C)C#Cc1cnc2c(c1)C(=O)N([C@@H](C)CO)C[C@@H](C)[C@@H](CN(C)S(=O)(=O)c1cn(C)cn1)O2` was inactive: 1; that for `O=C1C[C@]2(c3ccc([N+](=O)[O-])cc3)C(=O)N(Cc3ccccc3)c3cc(CO)ccc3[C@H]2N1CC12CC3CC(CC(C3)C1)C2` was inactive: 0.983; that for `C[C@@H]1CN([C@@H](C)CO)C(=O)c2cccc(NC(=O)c3ccc(-c4nccs4)cc3)c2O[C@H]1CN(C)Cc1ccc(C(=O)Nc2ccccc2N)cc1` was inactive: 1.01.
For `COc1ccc(CN(C)C[C@H]2OCCCC[C@@H](C)Oc3ccc(NC(=O)Cc4ccccc4)cc3C(=O)N([C@@H](C)CO)C[C@H]2C)cc1`, the relative growth was inactive: 0.996.
Next, `Cc1ccc(S(=O)(=O)N(C)C[C@H]2Oc3ccc(NS(=O)(=O)c4cn(C)cn4)cc3C(=O)N([C@@H](C)CO)C[C@H]2C)cc1`: inactive: 1.02; `COCC#Cc1ccc2c(c1)O[C@H](CN(C)S(C)(=O)=O)[C@@H](C)CN([C@@H](C)CO)S2(=O)=O`: inactive: 0.987; `C[C@@H]1CN([C@@H](C)CO)C(=O)c2cc(NC(=O)Cc3cn(C)c4ccccc34)ccc2O[C@H]1CN(C)Cc1ccc(Oc2ccccc2)cc1`: inactive: 1.01.
Turning to `C[C@@H]1CCCCO[C@H](CN(C)C(=O)Nc2ccc(F)cc2)[C@@H](C)CN([C@@H](C)CO)C(=O)c2cc(NC(=O)Nc3ccc(C(F)(F)F)cc3)ccc2O1`, the relative growth is inactive: 1.01.
Turning to `Cc1ccc(S(=O)(=O)N(C)C[C@H]2Oc3ccc(NC(=O)CCN4CCOCC4)cc3C(=O)N([C@@H](C)CO)C[C@H]2C)cc1`, the relative growth was inactive: 1.03.
As to `COc1ccc(CN(C)C[C@@H]2OCCCC[C@H](C)Oc3ccc(NC(=O)CCC(F)(F)F)cc3C(=O)N([C@H](C)CO)C[C@@H]2C)cc1`, the relative growth was inactive: 0.958.
`C[C@@H]1CN([C@@H](C)CO)C(=O)c2cc(NC(=O)c3ccccc3)ccc2O[C@@H](C)CCCCO[C@H]1CN(C)Cc1ccc2c(c1)OCO2`: the relative growth was inactive: 1.03.
Turning to `O=C(C[C@H]1CC[C@@H]2[C@H](COC[C@H](O)CN2C(=O)c2ccccc2F)O1)N1CCN(c2ccccc2)CC1`, the relative growth was inactive: 0.978.
On to `O=C(O)C1=CCCNC1`, for which the relative growth was inactive: 0.966.
For `C[C@H]1CCCCO[C@H](CN(C)C(=O)CCC(F)(F)F)[C@@H](C)CN([C@@H](C)CO)C(=O)c2cc(NS(=O)(=O)c3ccc(F)cc3)ccc2O1`, the relative growth is inactive: 1.
As to `C[C@@H]1CN([C@@H](C)CO)C(=O)Cc2cc(NC(=O)Cn3cnnn3)ccc2O[C@@H]1CN(C)C(=O)Nc1ccc(F)cc1`, the relative growth is inactive: 1.01.
With `CCCCCCc1ccc(O)cc1O.Nc1c2ccccc2nc2ccccc12`, the relative growth was inactive: 0.591.
In the case of `Cc1ccc(S(=O)(=O)Nc2ccc3c(c2)C(=O)N([C@@H](C)CO)C[C@H](C)[C@H](CN(C)S(=O)(=O)c2ccc(F)cc2)OCCCC[C@H](C)O3)cc1`, the relative growth was inactive: 1.
As to `COc1ccc(S(=O)(=O)N(C)C[C@@H]2OCCCC[C@H](C)Oc3ccc(NC(=O)Nc4ccc(F)cc4)cc3C(=O)N([C@H](C)CO)C[C@H]2C)cc1`, the relative growth is inactive: 1.04.
On to `C[C@@H]1CN([C@H](C)CO)C(=O)c2cc(NC(=O)Cc3ccccc3)ccc2O[C@H]1CN(C)Cc1ccc(-c2ccccc2)cc1`, for which the relative growth was inactive: 1.02.
Take `CC(=O)c1c(C)nn(CC(=O)O)c1C`: the relative growth was inactive: 1.
Consider `C[C@H](CO)N1C[C@H](C)[C@H](CN(C)C(=O)c2ccccc2)OCCCC[C@H](C)Oc2ccc(NC(=O)c3ccccc3)cc2C1=O`, for which the relative growth is inactive: 0.996.
As for `C[C@@H]1CN([C@H](C)CO)C(=O)c2cc(NS(=O)(=O)c3ccc(F)cc3)ccc2O[C@H]1CN(C)C(=O)Nc1ccc(C(F)(F)F)cc1`, the relative growth was inactive: 1.01.
The value for `CC1(C)S[C@@H]2[C@H](NC(=O)[C@H](NC(=O)N3CCNC3=O)c3ccccc3)C(=O)N2[C@H]1C(=O)O` was active: 0.0984.
With `CCCCCCCCCc1ccc(OCCOCCOCCOCCOCCOCCOCCOCCOCCO)cc1`, the relative growth was inactive: 0.996.
Take `C[C@@H]1CN([C@H](C)CO)C(=O)Cc2cc(NC(=O)Nc3ccc(C(F)(F)F)cc3)ccc2O[C@@H]1CN(C)Cc1ccc(Cl)c(Cl)c1`: the relative growth was inactive: 1.02.
As to `CC(C)c1ccc2oc3nc(N)c(C(=O)O)cc3c(=O)c2c1`, the relative growth is inactive: 0.903.
Consider `C[C@@H]1CCCCO[C@H](CN(C)Cc2ccc(Cl)c(Cl)c2)[C@@H](C)CN([C@@H](C)CO)C(=O)c2cc(NS(=O)(=O)c3ccc(F)cc3)ccc2O1`, for which the relative growth is inactive: 0.97.
